The list shows a part of the results. No stated cut-off is given here; in the data, active = 3.2 or more and inactive = the rest. The signal is at background level for most entries.
B1: CD6_HUMAN_662 (peptide)
chain: DSTDNDDYDDISAAG
B2: CD3Z_HUMAN_153 (peptide)
chain: STATKDTYDALHMQA
B3: CDK1_HUMAN_19 (peptide)
chain: EGTYGVVYKGRHKTT
B4: CDK1_HUMAN_15_YA (peptide)
chain: EKIGEGTYGVVAKGR
B5: CDC45_HUMAN_130 (peptide)
chain: DDLEVPAYEDIFRDE
B6: CAV1_HUMAN_14 (peptide)
chain: VDSEGHLYTVPIREQ
B7: CDC42_HUMAN_64 (peptide)
chain: DTAGQEDYDRLRPLS
B8: CD28_HUMAN_191 (peptide)
chain: SRLLHSDYMNMTPRR
B9: CDH2_HUMAN_884 (peptide)
chain: SSGGEQDYDYLNDWG
B10: CD79A_HUMAN_199 (peptide)
chain: NLDDCSMYEDISRGL
B11: CD300LF_HUMAN_263 (peptide)
chain: AEDQEPTYCNMGHLS
B12: CD33_HUMAN_340 (peptide)
chain: EMDEELHYASLNFHG
B13: CDC23_HUMAN_273 (peptide)
chain: VSQIAVAYHNIRDID
B14: CDH2_HUMAN_886 (peptide)
chain: GGEQDYDYLNDWGPR
B15: CD79B_HUMAN_207 (peptide)
chain: DIDQTATYEDIVTLR
B16: CD33_HUMAN_358 (peptide)
chain: SKDTSTEYSEVRTQG
B17: CD79B_HUMAN_196 (peptide)
chain: GMEEDHTYEGLDIDQ
B18: ABL1_HUMAN_257_YA (peptide)
chain: GGQAGEVYEGVWKKA

Biological target: SHP2 C-SH2 domain E139D
Experiment: enrichment score (SH2-bound / input frequency) (ratio); bacterial display of known human phosphotyrosine sites (pTyr-Var adds point mutants) read by sequencing; higher = stronger binding; tyrosines were phosphorylated by kinases first
Details: peptide library: Human pTyr
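Further: displayed peptides selected on beads carrying the immobilized SH2 domain, with library peptides lacking any tyrosine serving as negative controls.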

Binder | enrichment score
B1 | inactive: 1.35
B2 | inactive: 0.741
B3 | inactive: 0.788
B4 | inactive: 0.832
B5 | inactive: 1.57
B6 | inactive: 0.668
B7 | inactive: 0.54
B8 | inactive: 1.37
B9 | inactive: 0.723
B10 | inactive: 1.3
B11 | inactive: 1.06
B12 | inactive: 1.7
B13 | inactive: 0.848
B14 | inactive: 0.602
B15 | inactive: 0.909
B16 | inactive: 1.49
B17 | inactive: 1.24
B18 | inactive: 0.948

Biological target: SHP2 C-SH2 domain wild-type
Experiment: as above
Details: peptide library: Human pTyr

Binder | enrichment score
B1 | inactive: 1.08
B2 | inactive: 0.609
B3 | inactive: 0.578
B4 | inactive: 0.672
B5 | inactive: 1.25
B6 | inactive: 0.612
B7 | inactive: 0.487
B8 | inactive: 1.1
B9 | inactive: 0.628
B10 | inactive: 0.833
B11 | inactive: 0.776
B12 | inactive: 2.86
B13 | inactive: 1.18
B14 | inactive: 0.45
B15 | inactive: 0.697
B16 | inactive: 3.18
B17 | inactive: 1.27
B18 | inactive: 0.516

Biological target: SHP2 N-SH2 domain L43F
Experiment: as above
Details: peptide library: Human pTyr

Binder | enrichment score
B1 | inactive: 1.48
B2 | inactive: 0.775
B3 | inactive: 0.58
B4 | inactive: 0.716
B5 | inactive: 1
B6 | inactive: 0.725
B7 | inactive: 0.828
B8 | inactive: 1.14
B9 | inactive: 0.781
B10 | inactive: 1.1
B11 | inactive: 0.89
B12 | active: 13.9
B13 | inactive: 0.746
B14 | inactive: 0.794
B15 | inactive: 0.953
B16 | inactive: 0.792
B17 | inactive: 1.2
B18 | inactive: 0.661

Biological target: SHP2 N-SH2 domain T42A
Experiment: as above
Details: peptide library: Human pTyr

Binder | enrichment score
B1 | inactive: 1.05
B2 | inactive: 0.74
B3 | inactive: 0.693
B4 | inactive: 0.664
B5 | inactive: 1.6
B6 | inactive: 0.584
B7 | inactive: 0.496
B8 | inactive: 0.911
B9 | inactive: 0.65
B10 | inactive: 1.02
B11 | inactive: 0.824
B12 | active: 7.63
B13 | inactive: 0.531
B14 | inactive: 0.57
B15 | inactive: 1.16
B16 | inactive: 0.974
B17 | inactive: 1.13
B18 | inactive: 0.42

Biological target: SHP2 N-SH2 domain T52S
Experiment: as above
Details: peptide library: Human pTyr

Binder | enrichment score
B1 | inactive: 1.33
B2 | inactive: 0.684
B3 | inactive: 0.861
B4 | inactive: 1.07
B5 | inactive: 1.08
B6 | inactive: 0.513
B7 | inactive: 0.536
B8 | inactive: 0.977
B9 | inactive: 0.655
B10 | inactive: 0.985
B11 | inactive: 1.17
B12 | active: 8.72
B13 | inactive: 0.64
B14 | inactive: 0.683
B15 | inactive: 0.73
B16 | inactive: 0.696
B17 | inactive: 1.17
B18 | inactive: 0.685

Biological target: SHP2 N-SH2 domain wild-type
Experiment: as above
Details: peptide library: Human pTyr

Binder | enrichment score
B1 | inactive: 1.35
B2 | inactive: 0.547
B3 | inactive: 0.664
B4 | inactive: 0.789
B5 | inactive: 1.39
B6 | inactive: 0.77
B7 | inactive: 0.575
B8 | inactive: 1.21
B9 | inactive: 0.848
B10 | inactive: 1.09
B11 | inactive: 1.08
B12 | active: 3.77
B13 | inactive: 0.79
B14 | inactive: 0.691
B15 | inactive: 0.789
B16 | inactive: 0.869
B17 | inactive: 1.47
B18 | inactive: 0.449

Reference: the supplement of paper PMC10369915
